Laboratory results taken from PubChem BioAssay AID1030 (National Center for Advancing Translational Sciences (NCATS), 2008).
Values joined by “and” are separate entries in the source; they are usually repeats but may differ in a detail not shown here. Equal entries are not always repeated. Hit rate of the full screen: of about 220,000 compounds, about 16,000 (7.3%) were called active. This list was built around the results that the source calls inconclusive (neither active nor inactive); the mix of calls is not that of the screen. The call rests on the fitted dose curve; in most records, active means well fitted inhibition curve with a large enough effect (not every such curve was filed as active); inconclusive means small, poorly fitted or top-dose-only effect, or another doubt; inactive means no such curve, though single readings can be large or run the other way. Potencies of inconclusive entries are doubtful fits and often do not repeat.

These compounds were tested against Aldehyde dehydrogenase 1A1 (Homo sapiens) (UniProt P00352) (assay: qHTS Assay for Inhibitors of Aldehyde Dehydrogenase 1 (ALDH1A1)). Details: Purified ALDH1A1, NADH fluorescence, propionaldehyde substrate; series mostly up to 75.3 µM; activity, negative = inhibition: at the top concentration.
Chain of UniProt P00352 (P00352 whole entry, looked up): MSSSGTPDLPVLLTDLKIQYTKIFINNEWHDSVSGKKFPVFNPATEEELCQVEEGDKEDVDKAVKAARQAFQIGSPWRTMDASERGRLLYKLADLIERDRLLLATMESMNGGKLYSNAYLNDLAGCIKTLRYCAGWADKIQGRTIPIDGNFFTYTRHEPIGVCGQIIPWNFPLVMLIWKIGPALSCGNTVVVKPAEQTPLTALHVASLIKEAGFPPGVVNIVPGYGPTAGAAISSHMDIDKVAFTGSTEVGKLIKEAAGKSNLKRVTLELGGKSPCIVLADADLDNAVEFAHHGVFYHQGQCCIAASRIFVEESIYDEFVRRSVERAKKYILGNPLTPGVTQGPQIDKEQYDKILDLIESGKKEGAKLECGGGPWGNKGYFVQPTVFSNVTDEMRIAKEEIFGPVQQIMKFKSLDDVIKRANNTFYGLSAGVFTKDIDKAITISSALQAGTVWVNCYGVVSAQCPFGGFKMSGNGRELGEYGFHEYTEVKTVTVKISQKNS
Potency means the concentration at half of the fitted maximal effect; tags describe the fitted curve by direction and shape.
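Wherever activity, negative = inhibition is given: plate controls were no enzyme wells and a reference inhibitor.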

Row | Compound | Potency | activity, negative = inhibition
1 | CCCn1c(-c2ccc(OC)cc2)nc2ccccc21 | inconclusive: 28.2 µM [inhibitor, single point] | –
2 | COC(=O)c1sc(SC)c2c1CC(C)(C)C/C2=N/O | – | inactive: -0.98%
3 | Cc1ccc([N+](=O)[O-])cc1NC(=O)C(C)NS(=O)(=O)c1ccc(F)cc1 (stereo not drawn) | inconclusive: 39.8 µM [inhibitor, single point] | –
4 | CCOCCc1nnc(NC(=O)C(C)Oc2ccccc2)s1 (stereo not drawn) | – | inactive: 4.12%
5 | CCn1c(SCC(=O)c2ccc(OC)cc2)nnc1C(C)NC(=O)c1ccc(OC)cc1 (stereo not drawn) | active: 11.9 µM | –
6 | Cc1ccc2cc(CN(CC3CCCO3)C(=O)NC3CCCCC3)c(=O)[nH]c2c1C (stereo not drawn) | inconclusive: 44.7 µM [inhibitor, single point] | –
7 | Cc1ccc2c([N+](=O)[O-])cccc2n1 | inconclusive: 22.4 µM [inhibitor, partial curve] | –
8 | C[N+](C)(C)CC[N+]1(C)Cc2c(Cl)c(Cl)c(Cl)c(Cl)c2C1 | inactive | –
9 | CCN(CCCNC(=O)COc1cc(=O)n(CC)c2ccccc12)c1ccccc1 | – | inactive: 0.561%
10 | CN(Cc1cccnc1)Cc1c(C(=O)N2CCc3ccccc3C2)nc2ccc(Cl)cn12 | inconclusive: 25.1 µM [inhibitor, single point] | –
11 | O=C1N=C2N(CCN3CCCCC3)c3ccccc3N2/C1=C\c1ccc([N+](=O)[O-])o1 | inconclusive: 6.31 µM [inhibitor, partial curve] | –
12 | Nc1cccc(Oc2ccc3c(c2)C(=O)N(CC2CCCO2)C3=O)c1 (stereo not drawn) | active: 8.91 µM | –
13 | CCC(Oc1ccccc1)C(=O)N1CC(C)CC(C)C1 (stereo not drawn) | – | inactive: -0.526%
14 | COc1ccc(C(=O)C2CCCN(C(=O)c3cccnc3OC)C2)c(C)c1 (stereo not drawn) | inconclusive: 28.2 µM [inhibitor, partial curve] | –
15 | COc1cccc(N/C=C/C(=O)c2ccc(Cl)cc2)c1 | inconclusive: 25.1 µM [inhibitor, single point] | –
16 | CCOc1cc(/C=N/NC(=O)c2cccs2)cc([N+](=O)[O-])c1O | – | inactive: -4.04%
17 | S=C(NCc1ccccc1)N1CCn2cccc2C1c1ccncc1 (stereo not drawn) | inconclusive: 39.8 µM [inhibitor, single point] | –
18 | Cc1ccc(NC(=O)CN(C)C(=O)COc2c(Cl)cc(Cl)c3ccc(C)nc23)cc1 | – | inactive: 8.83%
19 | Cc1[nH]c(=O)[nH]c(=O)c1NC(=O)c1sc2nc3c(C)cccc3cc2c1N | – | inactive: -14.8%
20 | CC(C)(C)c1nnc(NC(=O)NS(=O)(=O)c2ccccc2)s1 | inconclusive: 28.2 µM [inhibitor, single point] | –
21 | COc1ccc(N(CC(=O)O)S(=O)(=O)c2ccc(C)cc2)cc1Cl | – | inactive: 5.14%
22 | COc1ccccc1CNC(=O)c1c(O)c2cc(OC)c(OC)cc2[nH]c1=O | – | inactive: 1.33%
23 | Cc1ccc(NC(=O)CN(C)C(=O)CN2C(=O)NC(C)(c3ccccc3)C2=O)cc1 (stereo not drawn) | inconclusive: 39.8 µM [inhibitor, single point] | –
24 | O=S(=O)(NC1CCCC1)c1ccc(S(=O)(=O)N(Cc2cccs2)CC2CCCO2)cc1 (stereo not drawn) | active: 25.1 µM | –

Row | Compound | Potency | activity, negative = inhibition
25 | CCc1ccc(CNC(=O)C2CCN(S(=O)(=O)N3CCC4(CC3)OCCO4)CC2)cc1 | – | inactive: -6.97%
26 | COc1ccc(N(C(=O)c2ccco2)S(=O)(=O)c2cccs2)cc1 | inconclusive: 39.8 µM [inhibitor, single point] | –
27 | CCCCN(CCCC)C(=S)N/N=C/c1c(C)[nH]n(-c2ccccc2)c1=O | active: 5.01 µM | –
28 | C=CCn1c(SCC(=O)NCC2CCCO2)nnc1C1CCCCC1 (stereo not drawn) | inconclusive: 39.8 µM [inhibitor, single point] | –
29 | CC1CCN(C2=NC(=O)/C(=C/c3cn(-c4ccccc4)nc3-c3cccc(S(=O)(=O)N(C)C)c3)S2)CC1 | inconclusive: 23.8 µM [inhibitor, partial curve] | –
30 | Cc1cc2ccccn2c1C(=O)c1ccc([N+](=O)[O-])o1 | inconclusive: 35.5 µM [inhibitor, single point] | –
31 | COc1ccc(C(=O)N/N=C(/C)c2ccc(N3CCCCC3)cc2)cc1 | inconclusive: 35.5 µM [inhibitor, single point] | –
32 | COc1ccc(CC(NC(C)=O)C(=O)NC2CCN(c3c(Cc4ccccc4)c(C)nc4ncnn34)CC2)cc1OC (stereo not drawn) | – | inactive: 7.62%
33 | O=C(/C=C/c1ccc(O)c(O)c1)OCCc1ccccc1 | inconclusive: 25.1 µM [inhibitor, single point] and inconclusive: 39.8 µM [inhibitor, single point] | –
34 | O=C(NCc1ccccc1Cl)C1CCCO1 (stereo not drawn) | – | inactive: 2.19%
35 | COc1ccc(Cl)cc1NC(=O)c1noc2c1CCCC2 | inconclusive: 2.82 µM [inhibitor, full curve] | –
36 | C=CCn1c(SCC(=O)OCC)nc(C(F)(F)F)cc1=O | – | inactive: -0.413%
37 | COC(=O)c1ccc(-n2c(C)cc(C(=O)COC(=O)CNS(=O)(=O)c3ccc(C)cc3)c2C)cc1 | inconclusive: 14.1 µM [inhibitor, partial curve] | –
38 | O=C(CCC(=O)Nc1ccccc1)N/N=C/c1ccncc1 | – | inactive: -8.58%
39 | CCc1nc(N)c(C#N)c(-c2ccco2)c1C | inconclusive: 17.8 µM [inhibitor, partial curve] | –
40 | COCCCNC(=O)CCn1c(=O)c2ccccc2n(CC(=O)NCCC2=CCCCC2)c1=O | inconclusive: 22.4 µM [inhibitor, partial curve] | –
41 | Cc1cc(C(=O)CCl)c(C)n1-c1cccc([N+](=O)[O-])c1 | active: 0.316 µM | –
42 | CC(=O)Nc1ccccc1C(=O)C(=O)NCCc1ccccc1 | – | inactive: 4.06%
43 | Cc1ccc(C(=O)COC(=O)c2cccs2)cc1 | – | inactive: -9.72%
44 | CC(CN(C)C)NC(=O)c1ccc(Cc2nc3ccccc3[nH]2)cc1 (stereo not drawn) | – | inactive: 17.7%
45 | O=C(CSCc1ccc(Cl)cc1)NCc1ccccn1 | inconclusive: 39.8 µM [inhibitor, single point] | –
46 | Cc1ccc(S(=O)(=O)N2CCCOC2CNC(=O)C(=O)NCc2cccs2)cc1 (stereo not drawn) | active: 11.2 µM | –
47 | COc1cc2c(C(=O)Nc3ccc4c(c3)OCO4)cn(CC(C)C)c(=O)c2cc1OC | inconclusive: 14.1 µM [inhibitor, partial curve] | –
48 | CCC(OC(=O)c1cccs1)C(=O)NCc1ccco1 (stereo not drawn) | active: 22.4 µM | –
